Assay results published in publication PMC4336329 (PLoS ONE, 2015).
Among all 310,000 compounds or so, about 2,200 (0.71%) showed an effect of 50% or more. The effect is printed as a negative number. Some of the results follow.

Each compound was assayed against human ether-à-go-go-related gene (hERG) potassium channel (human, UniProt Q12809) (assay: primary screen, population patch clamp on CHO cells stably expressing hERG).
Sequence of human ether-à-go-go-related gene (hERG) potassium channel (Q12809 whole entry, looked up): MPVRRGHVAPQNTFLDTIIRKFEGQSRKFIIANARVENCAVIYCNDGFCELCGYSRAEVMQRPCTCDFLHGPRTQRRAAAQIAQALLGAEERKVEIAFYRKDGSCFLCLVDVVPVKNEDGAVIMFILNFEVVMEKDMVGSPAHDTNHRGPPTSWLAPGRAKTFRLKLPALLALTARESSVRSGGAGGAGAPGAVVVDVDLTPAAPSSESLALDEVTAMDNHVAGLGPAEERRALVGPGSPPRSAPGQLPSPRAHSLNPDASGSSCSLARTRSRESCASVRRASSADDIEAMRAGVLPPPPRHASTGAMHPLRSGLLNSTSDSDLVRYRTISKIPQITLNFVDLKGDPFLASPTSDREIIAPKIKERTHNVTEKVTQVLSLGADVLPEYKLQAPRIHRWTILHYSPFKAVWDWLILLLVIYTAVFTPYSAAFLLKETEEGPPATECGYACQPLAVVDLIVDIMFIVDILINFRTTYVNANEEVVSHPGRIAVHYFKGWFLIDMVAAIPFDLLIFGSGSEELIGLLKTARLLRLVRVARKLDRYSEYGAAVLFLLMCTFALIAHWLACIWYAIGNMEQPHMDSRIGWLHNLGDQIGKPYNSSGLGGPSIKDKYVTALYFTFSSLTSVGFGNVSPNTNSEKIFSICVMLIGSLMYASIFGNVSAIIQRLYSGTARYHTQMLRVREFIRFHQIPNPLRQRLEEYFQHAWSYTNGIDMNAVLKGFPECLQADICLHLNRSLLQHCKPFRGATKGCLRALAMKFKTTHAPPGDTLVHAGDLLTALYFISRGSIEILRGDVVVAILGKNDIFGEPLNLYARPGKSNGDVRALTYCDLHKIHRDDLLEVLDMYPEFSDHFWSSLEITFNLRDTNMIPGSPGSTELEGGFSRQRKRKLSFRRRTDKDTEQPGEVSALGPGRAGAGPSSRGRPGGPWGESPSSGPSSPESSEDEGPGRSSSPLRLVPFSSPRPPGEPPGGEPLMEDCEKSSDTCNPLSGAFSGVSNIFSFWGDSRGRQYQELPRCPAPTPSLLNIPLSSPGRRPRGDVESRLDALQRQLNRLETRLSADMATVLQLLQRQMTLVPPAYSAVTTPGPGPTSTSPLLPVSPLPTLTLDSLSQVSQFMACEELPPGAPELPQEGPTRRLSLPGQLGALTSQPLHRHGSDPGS

| Structure (SMILES) | hERG current change (%, negative = inhibition) at 1uM [%] |
| --- | --- |
| CC1CCN(C(=O)/C(=C\c2cccs2)NC(=O)c2ccccc2)CC1 | -0.7 |
| Cc1cc(NC(=O)C(C)SCC(=O)OC(C)C(=O)Nc2ccccc2C)no1 (stereo not drawn) | 9.36 |
| CCOC(=O)CN1C(=O)CN(c2ccc(C)c(C)c2)C1=O | 7.26 |
| O=C(c1cc(COc2ccc(F)c(F)c2)on1)N1CCSCC1 | -4.71 |
| Cc1cc(-c2ccccc2)c(C#N)c(=S)[nH]1 | 13.3 |
| COC(=O)Nc1ncc(CN2CCCCC2)s1 | 8.18 |
| Cc1ccc(NC(=O)CCC(=O)NNC(=O)Nc2cccc(Cl)c2)c(C)c1 | 3.3 |
| O=c1[nH]cnc2c1cnn2Cc1ccccc1Cl | 15.1 |
| O=C(CN1C(=O)c2ccccc2S1(=O)=O)c1ccc2c(c1)OCCCO2 | 8.94 |
| CC(C)(C)n1nc2c(c1NC(=O)Cc1cccc3ccccc13)CS(=O)C2 (stereo not drawn) | 8.29 |
| C1CN(c2nc(N3CCOCC3)nc(N3CCOCC3)n2)CCO1 | 6.06 |
| O=[N+]([O-])c1cccc(S(=O)(=O)N2CCC(c3nc(-c4ccncc4)no3)CC2)c1 | 4.01 |
| NC(=S)N/N=C\c1ccccc1OCc1ccccc1 | 5.58 |
| COc1ccc([N+](=O)[O-])cc1NC(=O)C(C)Sc1ccc(C)cc1 (stereo not drawn) | 13.5 |
| COc1ccc(N(C(=O)c2ccncc2)S(=O)(=O)c2ccc(OC)c(OC)c2)cc1 | -1.41 |
| O=C(NCc1cccs1)c1ccc(Cl)c(S(=O)(=O)N2CCCC2)c1 | 2.49 |
| CC1CCCCN1C(=S)NCc1ccccc1 (stereo not drawn) | 7.17 |
| CCOc1ccc(Cl)cc1S(=O)(=O)N1CCC(C(=O)NC2CC2)CC1 | 5.07 |
| CCCS(=O)(=O)Nc1cccc(-c2ccc3nnc(C)n3n2)c1 | 2.58 |
| CC(=O)Nn1cnc2c(c1=O)C1(CCCC1)Cc1ccccc1-2 | 6.56 |
| CCN(Cc1ccccc1)C(=O)c1cccc(S(=O)(=O)N2CCN(Cc3ccccc3)CC2)c1 | 8.93 |
| O=C(O)CSCC(=O)NCc1ccc(Cl)cc1 | 0.953 |
| OCCCc1nc2ccccc2n1Cc1ccccc1 | 13.3 |

| Structure (SMILES) | hERG current change (%, negative = inhibition) at 1uM [%] |
| --- | --- |
| Cc1nc2c(cnn2-c2ccccc2)c(=O)n1/N=C/c1ccccc1 | 7.36 |
| O=C(Cn1cnc2c(oc3ccccc32)c1=O)N1CCN(c2ccccc2)CC1 | 8.58 |
| CCCCOc1cccc(C(=O)Nc2ccc(NC(=O)c3ccco3)cc2)c1 | 7.64 |
| COc1cc(NC(=S)NNC(=O)C(C)(C)O)cc(OC)c1 | 14 |
| CCOC(=O)c1n[nH]c(=O)c2ccccc12 | 11.3 |
| COc1cc(-n2c(=O)c3ccccc3n(Cc3cc(=O)n4ccccc4n3)c2=O)cc(OC)c1OC | 0.889 |
| Cc1ccc(C(=O)C(C)OC(=O)c2ccc(Cl)nc2)cc1 (stereo not drawn) | 3.15 |
| CCn1c(CNc2ccc(F)cc2)nnc1SCC(=O)Nc1ccc(OC)cc1 | 5.57 |
| CC(C)CNC(=O)[C@H]1N2C(=O)c3ccccc3C2SC1(C)C (stereo partly drawn) | 14.5 |
| O=C(NC1CCCCCC1)C1CCN(S(=O)(=O)c2cnc[nH]2)CC1 | 8.28 |
| O=C1Nc2ccc(Br)cc2/C1=C/C(=O)c1ccc2c(c1)OCO2 | 11.9 |
| CC(C)CCOc1ccc(C2=NNC(=O)CC2)cc1 | 12.7 |
| Cc1cccc(/C=N/NC(=O)C2CCCNC2=O)c1 (stereo not drawn) | 14.2 |
| CNC(=O)/C(C#N)=C/c1c(N2CCN(c3cccc(Cl)c3)CC2)nc2c(C)cccn2c1=O | 14.7 |
| O=c1c2cnn(-c3ccccc3)c2ncn1Cc1cccc(Cl)c1 | 13.8 |
| COc1ccc(-c2nc(-c3ccc(Br)cc3)no2)c(OC)c1 | -0.439 |
| CCCNS(=O)(=O)c1ccc(OCC(=O)NCCCOC)cc1 | 2.25 |
| COc1ccc(CCCNC(=O)C2CCC(=O)N(CCc3cccc(F)c3)C2)cc1 (stereo not drawn) | -16.6 |
| CC(C)CCn1c2ccccc2c2cc(CC(N)=O)ccc21 | 10.2 |
| Cc1ccc(NC(=O)C2=C(O)CCn3c2nc2ccccc23)cc1 | 4.13 |
| Cc1nn(-c2ccc3ccccc3c2)c(=O)c2ccccc12 | 19.1 |
| CC1(C)CC(=O)C(C=Nc2ccccc2Sc2ccccc2)=C(O)C1 | 8.97 |
| Cc1csc(SCCN2C(=O)c3ccccc3C2=O)n1 | 11.7 |

| Structure (SMILES) | hERG current change (%, negative = inhibition) at 1uM [%] |
| --- | --- |
| COc1ccc(Cc2nc3ccc(C(=O)NC4CCOC4)cc3o2)cc1 (stereo not drawn) | 17.6 |
| Cc1ccc(C(=O)NCCCc2ccccc2)c(C)c1 | 16.2 |
| Cc1ccc2[nH]c3c(NCc4ccco4)ncnc3c2c1 | -0.139 |
| Cc1ccc(OCCN2C(=O)CSC2=O)cc1 | 3.39 |
| Cc1ccc(C)c(S(=O)(=O)N2CCN(c3ncccn3)CC2)c1 | 12 |
| Cc1cc(C)c(C(=O)COC(=O)CCn2c(C)csc2=O)cc1C | 3.15 |
| Cc1ccc(S(=O)(=O)N2CCN(C(=O)c3ccco3)CC2)cc1 | 11.4 |
| CN(C)c1ccc(/C=N/NC2=NS(=O)(=O)c3ccccc32)cc1 | 9.35 |
| C=CCn1c(SCC(=O)Nc2cccc(S(N)(=O)=O)c2)nnc1C1CCCCC1 | 3.85 |
| COc1ccccc1N1C(=O)S/C(=C\c2cccs2)C1=O | 15.2 |
| CC(C)=CCN1CCN(Cc2cccc3nccnc23)CC1CCO (stereo not drawn) | -1.39 |
| CCn1nc(C(=O)OCC(=O)c2c[nH]c3ccccc23)c2ccccc2c1=O | -0.717 |
| CCN(CC)CCNC(=O)c1ccc(NC(=O)C2CC(=O)N(c3ccc4c(c3)OCCO4)C2)cc1 (stereo not drawn) | 11.2 |
| Cl.c1ccc(CCn2nnnc2C(c2cccs2)N2CCN(Cc3ccc4c(c3)OCO4)CC2)cc1 (stereo not drawn) | -1.71 |
| Cc1ccc(C(=O)N/C(=C/c2ccco2)C(=O)NCC2CCCO2)cc1 (stereo not drawn) | 0.646 |
| CCN(Cc1ccccc1)Cc1c(F)cccc1F | 1.77 |
| COc1cccc(CC(NC(C)=O)C(=O)NC2CCN(c3c4c(nc5ncnn35)CCC4)CC2)c1OC (stereo not drawn) | 12.2 |
| Cc1ccn(Cc2n[nH]c(=S)n2Cc2ccccc2)n1 | 1.72 |
| CC(C)CN1CCN(Cc2cccc3ncccc23)CC1CCO (stereo not drawn) | 7.1 |
| CCc1cc(=O)oc2c(CNCc3ccc(OC)cc3OC)c(O)c(Cl)cc12.Cl | 9.76 |
| CC(=O)Nc1ccc(NS(=O)(=O)c2cc(Cl)ccc2Cl)cc1 | -1.27 |
| O=C(CNS(=O)(=O)c1c(Cl)cccc1Cl)OCC(=O)c1ccc[nH]1 | 11.5 |
| CCOc1cc(CNc2ccc(OC)cc2)cc(Br)c1OCC(=O)NC(C)(C)C | 7.47 |

| Structure (SMILES) | hERG current change (%, negative = inhibition) at 1uM [%] |
| --- | --- |
| O=C(COc1ccc(Br)cc1CO)Nc1ccc(S(=O)(=O)N2CCCCC2)cc1 | 9.86 |
| O=C1c2ccccc2C(Nc2ccc(S(=O)(=O)N3CCOCC3)cc2)N1c1cccnc1 (stereo not drawn) | -1.69 |
| COc1ccc(NC(=O)c2ccc3ccccc3n2)cc1S(=O)(=O)Nc1ccccc1Cl | 19.4 |
| COc1ccc(C)cc1NC(=O)c1cc2ccccc2o1 | 10 |
| CCOC(=O)C1=C(C)NC2=C(C(=O)CC(c3ccc(OC)c(OC)c3)C2)C1c1ccc(C)o1 (stereo not drawn) | -11.2 |
| CN(CC(=O)Nc1ccc(F)c(F)c1F)C(=O)C1=COCCO1 | 16.5 |
| O=C(CCCC(=O)N(CC(=O)NC1CCCC1)C1CCCC1)Nc1ccccn1 | 10.4 |
| CC/C(Cc1ccccc1)=N/NC(=O)CCn1nnc2ccccc21 | 10.6 |
| Cc1cccc(C)c1NC(=O)COC(=O)C1CC(=O)N(Cc2ccccc2)C1 (stereo not drawn) | 4.08 |
| O=c1oc2cc(O)ccc2s1 | 13.5 |
| CC(=O)c1ccc(OCCCC(=O)n2nnc3ccccc32)cc1 | 26.7 |
| C=CCn1c(NCCO)nc2c1c(=O)n(C)c(=O)n2C | 12.9 |
| CCN(CC)S(=O)(=O)c1cc(NC(=O)C(=O)c2c(-c3ccccc3)cc3ccccn23)ccc1C | -0.318 |
| CCCOc1ccc(/C(O)=C2/C(=O)C(=O)N(CCCn3ccnc3)C2c2ccc(C)o2)cc1 (stereo not drawn) | 11.3 |
| COc1cccc(/C=N/NC(=O)CSc2nnc(C)n2-c2ccccc2)c1OC | 5.05 |
| CN(c1ccccc1)S(=O)(=O)c1cccc(NC(=O)c2cccc(C#N)c2)c1 | -2.81 |
| CN1CCN(C(=O)C23CCC(C)(C(=O)C2Br)C3(C)C)CC1 (stereo not drawn) | 11.6 |
| C/C(=N\Nc1nc(N)cc(Cl)n1)c1ccc(F)cc1 | 1.46 |
| CCn1c(C)csc1=NC(=O)c1ccccc1 | 11.3 |
| CCN(CC)C(=O)Cn1c(=O)n(CCC(=O)Nc2ccc(F)cc2)c(=O)c2sccc21 | 9.3 |
| O=C(CSc1nnc(CNC(=O)c2cccs2)o1)Nc1cccc(F)c1 | 10.4 |
